Out of some 350,000 compounds screened, about 31,000 (8.9%) were called active. Inconclusive results, whose numbers are uncertain, are shown with a selection of clear calls. Calls follow the shape of the dose curve; as a rule, active = well fitted inhibition curve with a large enough effect; inconclusive = small, poorly fitted or top-dose-only effect; inactive = no such curve, though single readings can be large or run the other way. Potencies beside an inconclusive call are fits to weak or partial responses and may not hold up.
What follows are molecules tested against Histone-lysine N-methyltransferase EHMT2 (Homo sapiens) (UniProt Q96KQ7) (assay: qHTS Assay for Inhibitors of Histone Lysine Methyltransferase G9a). Conditions: G9a H3K9 monomethylation, AlphaScreen, 2 h; activity, negative = inhibition: at 59 µM (top of the series) unless noted.
UniProt Q96KQ7, sequence (Q96KQ7 whole entry, looked up): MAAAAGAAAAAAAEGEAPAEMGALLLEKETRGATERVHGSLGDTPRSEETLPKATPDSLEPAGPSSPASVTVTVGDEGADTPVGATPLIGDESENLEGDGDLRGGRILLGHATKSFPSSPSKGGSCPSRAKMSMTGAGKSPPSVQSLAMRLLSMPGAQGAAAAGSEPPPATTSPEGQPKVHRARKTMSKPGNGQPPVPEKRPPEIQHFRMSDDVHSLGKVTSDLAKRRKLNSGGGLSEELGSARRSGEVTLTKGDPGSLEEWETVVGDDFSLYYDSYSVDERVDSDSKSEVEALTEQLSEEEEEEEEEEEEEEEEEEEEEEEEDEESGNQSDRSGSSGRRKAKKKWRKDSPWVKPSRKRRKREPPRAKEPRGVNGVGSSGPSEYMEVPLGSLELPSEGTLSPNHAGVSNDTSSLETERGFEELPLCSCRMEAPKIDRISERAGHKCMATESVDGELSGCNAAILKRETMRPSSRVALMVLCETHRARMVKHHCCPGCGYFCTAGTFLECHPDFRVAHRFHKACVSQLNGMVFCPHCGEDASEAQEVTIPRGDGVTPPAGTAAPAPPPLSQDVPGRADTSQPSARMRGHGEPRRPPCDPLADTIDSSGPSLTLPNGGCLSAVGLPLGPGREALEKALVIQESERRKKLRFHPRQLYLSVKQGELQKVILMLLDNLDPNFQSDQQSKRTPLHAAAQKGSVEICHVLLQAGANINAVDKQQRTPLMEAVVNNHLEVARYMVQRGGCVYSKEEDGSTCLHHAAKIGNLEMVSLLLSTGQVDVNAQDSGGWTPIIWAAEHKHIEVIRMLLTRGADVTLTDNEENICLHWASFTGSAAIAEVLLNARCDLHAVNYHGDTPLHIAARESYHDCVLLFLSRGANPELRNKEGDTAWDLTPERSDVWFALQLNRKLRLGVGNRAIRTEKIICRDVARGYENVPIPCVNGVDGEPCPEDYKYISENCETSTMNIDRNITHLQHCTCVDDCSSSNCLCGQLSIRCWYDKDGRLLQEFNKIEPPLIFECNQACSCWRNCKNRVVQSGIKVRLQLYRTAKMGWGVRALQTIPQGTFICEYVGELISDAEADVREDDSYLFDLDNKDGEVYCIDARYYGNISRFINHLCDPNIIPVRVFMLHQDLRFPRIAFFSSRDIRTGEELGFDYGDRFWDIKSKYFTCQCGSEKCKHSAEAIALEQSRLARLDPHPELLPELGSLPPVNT
How it was run: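 Chemiluminescent proximity detection of H3K9 monomethylation, read after 10 min bead incubation in the dark. Reaction: 20 nM G9a, 500 nM biotin-H3K9 peptide, 20 uM SAM cofactor, 2 h, room temperature, following 15 min enzyme-compound preincubation.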
`Cc1cccc(N2CCN(C(=O)c3c(C)nn(Cc4ccccc4Cl)c3C)CC2)c1C` was tested, and the Potency was inconclusive: 89.1 µM [inhibitor, single point].
In the case of `COc1ccc(NC(=O)CSCC(=O)Nc2sccc2C#N)cc1`, the Potency is reported as active: 39.8 µM.
In the case of `O=C(CC1C(=O)NCCN1CC(c1ccccc1)c1ccccc1)NC1CC1` (stereo not given), the Potency is reported as active: 44.7 µM.
`Cc1ccc(NC2CCCN(C(=O)CN3C(=O)CSC3=O)C2)cc1C` (stereo not given) was tested, and the Potency was inconclusive: 20 µM [inhibitor, partial curve, poor fit].
`CCC(C)N(C(=O)CSc1ccc(NC(C)=O)cc1)C1CCS(=O)(=O)C1` (stereo not given) was tested, and the Potency was inconclusive: 50.1 µM [inhibitor, partial curve, poor fit].
With `CCCCC1(Cc2cccc([N+](=O)[O-])c2)C(=O)N(c2ccccc2)N(c2ccccc2)C1=O` the Potency was inconclusive: 28.2 µM [inhibitor, partial curve, poor fit].
`COc1ccc2sc(N(CCCN(C)C)C(=O)c3ccc(S(=O)(=O)N4CCCc5ccccc54)cc3)nc2c1` was tested, and the Potency was active: 39.8 µM.
In the case of `COc1ccc(-n2nc([N+](=O)[O-])c(=NCCc3ccc(OC)c(OC)c3)n2O)cc1`, the Potency is reported as inconclusive: 0.631 µM [inhibitor, full curve, poor fit].
In the case of `CCN(CC(=O)NC1CCCCCC1)S(=O)(=O)c1ccccc1`, the Potency is reported as inconclusive: 39.8 µM [inhibitor, partial curve, poor fit].
For `CCOC(=O)N1CCc2c(sc3c2c(=O)n(-c2ccc(CC)cc2)c(=O)n3C)C1`, the Potency was inconclusive: 25.1 µM [inhibitor, partial curve, poor fit].
In the case of `O=[N+]([O-])c1ccc(NC(=S)N/C(=N/CS(=O)(=O)c2ccccc2)c2ccccc2)cc1`, the Potency is reported as active: 11.2 µM.
`COc1ccc(N=C(N(C)C)P(=O)(N(C)C)N(C)C)cc1` was tested, and the Potency was inconclusive: 89.1 µM [inhibitor, single point].
With `COc1ccc(Cl)cc1NS(=O)(=O)c1cccc(C(=O)NCCCN2CCCC2=O)c1` the “activity, negative = inhibition” value was inactive: 37.1% [at 102 µM].
`COc1ccc2c(CC(=O)Nc3ccc(N4CCOCC4)cc3)coc2c1` was tested, and the Potency was inconclusive: 28.2 µM [inhibitor, partial curve, poor fit].
With `COC(=O)C1CCN(CCCOc2ccc(CN3CCN(c4ccc([N+](=O)[O-])cc4)CC3)cc2)CC1` the Potency was inconclusive: 39.8 µM [inhibitor, partial curve].
With `COc1ccc(CNC(=O)c2cc3c(C)nc4ccccc4c3o2)c(OC)c1` the “activity, negative = inhibition” value was inactive: -10.1% [at 102 µM].
`O=C(Nc1nccs1)c1cccc(NC(=O)c2ccco2)c1` was tested, and the Potency was inconclusive: 28.2 µM [inhibitor, single point].
`Cc1ccc(S(=O)(=O)NC(C)C(=O)N2CCOCCOCCOCC2)cc1` (stereo not given) was tested, and the Potency was active: 70.8 µM.
For `CCCC(=O)NC(c1ccc(OC)c(OC)c1)c1c(O)ccc2ccccc12` (stereo not given), the Potency was inconclusive: 39.8 µM [inhibitor, partial curve, poor fit].
For `COc1cccc(C(c2c(NC(=O)c3ccccc3)sc(C)c2C)N2CCN(C)CC2)c1` (stereo not given), the Potency was inconclusive: 28.2 µM [inhibitor, single point].
`C/C(CCc1ccccc1)=N\NC(=S)NCCc1ccccc1` was tested, and the Potency was inconclusive: 89.1 µM [inhibitor, single point].
`CCC1CCCCN1S(=O)(=O)c1cc2c3c(c1)CC(=O)N3CCC2` (stereo not given) was tested, and the “activity, negative = inhibition” value was inactive: 2.45%.
With `O=C(Nc1ccc(Cl)cc1)c1cc2c(cc1O)[nH]c1ccccc12` the activity, negative = inhibition was inconclusive: -51.8% [inhibitor].
In the case of `OC(COCc1ccccc1)CN1CCN(Cc2ccc3c(c2)OCO3)CC1` (stereo not given), the Potency is reported as inconclusive: 56.2 µM [inhibitor, partial curve, poor fit].
For `Cc1ccccc1C(=O)NC(=S)Nc1ccc(Cc2ccncc2)cc1`, the Potency was inconclusive: 2.82 µM [inhibitor, full curve, poor fit].
In the case of `O=C(NNC(=O)c1cccc(-n2cccc2)c1)c1ccc(F)cc1`, the activity, negative = inhibition is reported as inactive: 0.874% [at 12.7 µM].
In the case of `CCC1CCCCN1C(=O)COc1ccc(S(=O)(=O)N2CCOCC2)cc1Cl` (stereo not given), the activity, negative = inhibition is reported as inactive: -27% [at 12.7 µM].
In the case of `Cc1ccc(/C=C(\NC(=O)c2ccccc2)C(=O)N2CCCC2C(=O)O)cc1` (stereo not given), the Potency is reported as inconclusive: 89.1 µM [inhibitor, single point].
`COc1cc(C2NC(=S)NC(C)=C2C(=O)OC(C)C)ccc1OC(C)C` (stereo not given) was tested, and the Potency was inconclusive: 15.8 µM [inhibitor, partial curve].
For `COC(=O)C1Cc2c([nH]c3ccccc23)C(C)N1` (stereo not given), the Potency was active: 20 µM.
`COc1ccc(C(=O)c2c(N)c(C(=O)Nc3cccc(OC)c3)c3ccccn23)cc1` was tested, and the Potency was active: 28.2 µM.
For `C#CCOCCOCCOCCNc1nc(N2CCN(C(=O)[C@H]([C@@H](C)CC)n3cc([C@@H](N)CC(C)C)nn3)CC2)nc(N2CCN(C(=O)[C@H](Cc3cc4ccccc4[nH]3)n3cc([C@@H](N)C(C)CC)nn3)CC2)n1` (stereo not given in full), the activity, negative = inhibition was inactive: 2.11% [at 12.7 µM].
`Cc1c(C(=O)N(C)C)sc2c1c(=O)n(-c1ccc(Cl)cc1)c(=O)n2CC(=O)C(C)(C)C` was tested, and the “activity, negative = inhibition” value was inactive: 8.45%.
With `O=C(Oc1cccc(C(=S)N2CCOCC2)c1)c1ccccc1` the Potency was active: 7.08 µM.
With `CCOC(=O)c1ccccc1NC(=O)c1ccccc1SC` the activity, negative = inhibition was inconclusive: -66.6% [inhibitor].
In the case of `CC1CN(C2CCN(C(=O)c3ccccc3Cl)CC2)CC(C)O1` (stereo not given), the activity, negative = inhibition is reported as inconclusive: -133% [inhibitor].
In the case of `Cc1ccc(C)c(CN2C(=O)C3CCCN3c3ccc(C#N)cc32)c1` (stereo not given), the Potency is reported as inconclusive: 79.4 µM [inhibitor, single point].
For `COc1ccc(-c2noc(-c3ccc(NCc4cccnc4)c([N+](=O)[O-])c3)n2)cc1OC`, the Potency was inconclusive: 39.8 µM [inhibitor, single point].
With `Cc1cc(C)cc(-n2c(C)nc3cc(C(=O)O)ccc32)c1` the Potency was inconclusive: 35.5 µM [inhibitor, partial curve].
In the case of `CCOc1ccc(C2=CC(c3cccc(Br)c3)n3c(nc4ccccc43)N2)cc1Cl` (stereo not given), the Potency is reported as inconclusive: 39.8 µM [inhibitor, single point].
In the case of `NNc1nccc(Nc2ccccc2C(=O)O)n1`, the Potency is reported as inconclusive: 39.8 µM [inhibitor, single point].
In the case of `O=C(CCn1c(=O)oc2ccccc21)NCCN1CCc2ccccc2C1`, the activity, negative = inhibition is reported as inconclusive: -95.9% [inhibitor].
`CCOc1cc(C(=O)NCCC(=O)N2CCC3(CC2)NCCc2[nH]cnc23)cc(OCC)c1OCC` was tested, and the “activity, negative = inhibition” value was inactive: 9.75%.
`COc1cccc(CNC(=O)c2cccc(NC(=O)C3=C(C)OCCS3)c2)c1` was tested, and the Potency was inconclusive: 79.4 µM [inhibitor, single point].
In the case of `COc1cccc(CNC(=O)COc2cc3c(c4oc(=O)cc(C)c24)CCC(C)(C)O3)c1`, the Potency is reported as inconclusive: 39.8 µM [inhibitor, single point].
With `COc1ccc(/C=C/C(=O)N2CCN(c3ccccn3)CC2)c2ccccc12` the Potency was inconclusive: 50.1 µM [inhibitor, partial curve, poor fit].
For `CC(C)C(=O)OCC(=O)Nc1ccc(N=Nc2ccccc2)cc1`, the Potency was active: 44.7 µM.
`COc1ccc(N2CC(C(=O)Nc3ccc(S(=O)(=O)Nc4nccs4)cc3)CC2=O)cc1` (stereo not given) was tested, and the Potency was inconclusive: 79.4 µM [inhibitor, single point].
With `NNC(=O)CNS(=O)(=O)c1ccc([N+](=O)[O-])cc1` the Potency was inconclusive: 0.794 µM [inhibitor, full curve, poor fit].
`O=C(NCC1CCCO1)C12CN(Cc3ccccc3)CC1C(c1cccc([N+](=O)[O-])c1)=NO2` (stereo not given) was tested, and the activity, negative = inhibition was inconclusive: -55.9% [inhibitor] [at 12.7 µM].
With `Cn1cc(CC(=O)N2CCN(c3ccccc3F)CC2)c2ccccc21` the Potency was inconclusive: 89.1 µM [inhibitor, single point].
With `Cc1cnc(CNc2cc(-c3cccc(C#N)c3)ncn2)cn1` the activity, negative = inhibition was inactive: -4.06% [at 0.501 µM].
`COCC(C)NC(=O)c1ccc2c(c1)S(=O)(=O)c1ccccc1C2=O` (stereo not given) was tested, and the “activity, negative = inhibition” value was inactive: 10.3% [at 102 µM].
`COc1ccccc1-n1cnnc1SCC(=O)Nc1cccc(S(N)(=O)=O)c1` was tested, and the “activity, negative = inhibition” value was inactive: 3.31% [at 102 µM].
In the case of `Cc1ccc(N2NC(=O)/C(=C/c3ccc(-c4ccc(Cl)c(C(=O)O)c4)o3)C2=O)cc1C`, the Potency is reported as inconclusive: 8.91 µM [inhibitor, partial curve, poor fit].
`CC(C)Oc1cccc(-c2nnc(SCC(=O)Nc3ccc4c(c3)OCCO4)n2N)c1` was tested, and the activity, negative = inhibition was inconclusive: -63.4% [inhibitor].
For `CS(=O)(=O)c1ccc(C(O)C(CO)NC(=O)C(Cl)Cl)cc1` (stereo not given), the activity, negative = inhibition was inactive: -41.3% [at 2.33 µM].
In the case of `COc1ccc2sc(-c3ccc(N(C)C)cc3)c(-c3cnc(OC)nc3)c2c1`, the activity, negative = inhibition is reported as inactive: -5.61% [at 0.501 µM].
`NS(=O)(=O)c1cc(C(=O)NC2CCSc3ccccc32)ccc1Cl` (stereo not given) was tested, and the Potency was active: 1.58 µM.
`CCOc1ccc(NC(=O)C2CCN(C(=O)N3CC(C)Oc4ccc(Cl)cc43)CC2)cc1` (stereo not given) was tested, and the Potency was inconclusive: 10 µM [inhibitor, partial curve, poor fit].
In the case of `O=C(NCc1ccccc1Cl)C1CCN(C(=O)c2ccco2)CC1`, the “activity, negative = inhibition” value is reported as inactive: -29.5% [at 102 µM].
With `CC(=O)Nc1ccc(S(=O)(=O)N[C@@H](C)C(=O)Nc2ccc(N3CCOCC3)cc2)cc1` the Potency was inconclusive: 50.1 µM [inhibitor, partial curve, poor fit].
In the case of `CCCn1c(CN2CCN(c3ccc(OC)cc3)CC2)nc2c1c(=O)[nH]c(=O)n2C`, the Potency is reported as active: 25.1 µM.
For `CC(=O)c1cc(F)c(N2CCN(C(=O)c3ccco3)CC2)cc1C`, the activity, negative = inhibition was inactive: -31.3% [at 12.7 µM].
`Cc1ccc(NC(=O)CN(C)C(=O)CSc2ncc(C(F)(F)F)cc2Cl)cc1` was tested, and the Potency was inconclusive: 31.6 µM [inhibitor, single point].

From PubChem BioAssay AID504332 (National Center for Advancing Translational Sciences (NCATS), 2011)
% is scaled to controls: 0 for no effect and ±100 for the full control effect; potency is read from the fitted curve at half-maximal effect; tags tell the direction and shape of the fitted curve.
Also: nearly all actives have a fitted effect of over 75% in size.
